Source: PubChem BioAssay (NCATS)
Where “and” joins values, the source holds several entries; their conditions need not be identical. Identical values can stand only once. The inconclusive results got no clear call from the source; some entries with a clear call stand among them for comparison. Where the call is inconclusive, the potency comes from a doubtful curve fit. Calls of active or inactive are those of the source. Calls come from the whole dose curve; as a rule, active = well fitted curve in the direction sought with a large enough effect; inconclusive = small, poorly fitted or top-dose-only effect, or another doubt; inactive = no such curve, though single readings can be large; an effect the other way counts as inactive or inconclusive.

What was measured:
[1] = Viability qHTS for spleen associated tyrosine kinase inhibitor (SYKi) naive MV4-11 cells (AID 1963823); conditions: MV4-11 AML viability, CellTiter-Glo luminescence, 72 h; series mostly up to 45 µM; note: nearly all actives have a fitted effect of over 40% in size
Outline: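 In this viability screen, compounds acted on SYK inhibitor naive MV4-11 cells for three days (72 hr, 37 C). Remaining viable cells were measured by CellTiter-Glo luminescence following a 10 min room-temperature development.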

[2] = Viability qHTS for spleen associated tyrosine kinase inhibitor (SYKi) drug resistant MV4-11 cells (AID 1963824); note: nearly all actives have a fitted effect of over 35% in size
Outline: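 SYK-inhibitor-resistant MV4-11 AML cells were seeded at 500 per well onto compound and cultured 72 hours (37 °C, 5% CO2). CellTiter-Glo was then added, and after 10 min at room temperature, luminescence gave viability.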

[3] = Cellular viability qHTS for adrenocortical cancer (ACC) cell line NCI-H295R (AID 1963990); conditions: CellTiter-Glo ATP luminescence, 48 h; series mostly up to 46.1 µM; note: nearly all actives have a fitted effect of over 60% in size
Outline: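 IC50 and maximal efficacy derive from four-parameter logistic modelling of titration curves, with reads scaled between DMSO-only wells (0%) and doxorubicin hydrochloride (100% inhibition). Compounds spanned up to 46 uM over 48 h.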
Potency is the fitted concentration of half-maximal effect; tags give direction and shape of the fitted curve.

Structure (SMILES) | Potency [1] | Potency [2] | Potency [3]
CCc1c(-c2ccccc2C)nc2c(C#N)c[nH]n2c1=O | inconclusive: 37.2 µM [cytotoxic, single point] | inconclusive: 16.6 µM [cytotoxic, partial curve, poor fit] | inconclusive: 35.5 µM [cytotoxic, single point]
CCOc1ccc2nc(S(N)(=O)=O)sc2c1 | inconclusive: 29.9 µM [cytotoxic, single point] | inconclusive: 21.1 µM [cytotoxic, single point] | inconclusive: 3.66 µM [cytotoxic, full curve, poor fit]
CCOC(=O)c1ccccc1O | inactive | inactive | inactive
Cc1cc(C)cc(Oc2ccc(CNC(=O)[C@H](C)N)cc2C)c1 | inconclusive: 18.6 µM [cytotoxic, partial curve] | active: 16.6 µM | inconclusive: 31.6 µM [cytotoxic, partial curve, poor fit]
CC(=O)CCC(=O)O | inactive | inactive | inactive
CC(C)(O)C1CCC(Nc2ccc3ncc(-c4cccc(C(F)(F)F)c4)n3n2)CC1 (configuration not stated) | inconclusive: 0.742 µM [cytotoxic, full curve] | active: 1.32 µM | active: 4.47 µM
COc1cc2c(cc1OC)[C@@H]1CC(=O)[C@@H](CC(C)C)CN1CC2 | inconclusive: 0.0094 µM [cytotoxic, full curve, poor fit] | inactive | inconclusive: 16.4 µM [cytotoxic, single point]
CCOC(=O)Nc1ccc2c(c1)N(C(=O)CCN1CCOCC1)c1ccccc1S2 | inconclusive: 26.6 µM [cytotoxic, single point] | inconclusive: 33.5 µM [cytotoxic, single point] | inconclusive: 29.1 µM [cytotoxic, single point]
COC(=O)c1nc(Cl)c(Cl)nc1N | inconclusive: 1.06 µM [cytotoxic, full curve] | active: 0.596 µM | active: 0.103 µM
CN1CCN(C2=Nc3ccccc3Oc3ccc(Cl)cc32)CC1 | inconclusive: 15 µM [cytotoxic, partial curve] | inconclusive: 10.6 µM [cytotoxic, partial curve] | inconclusive: 20.6 µM [cytotoxic, single point]
CC(=O)Nc1c(I)cc(I)c(C(=O)O)c1I | inactive | inactive | inconclusive: 4.11 µM [cytotoxic, partial curve]
Cc1cccc(C(=O)O)c1O | inconclusive: 13.3 µM [cytotoxic, partial curve, poor fit] | inconclusive: 15 µM [cytotoxic, partial curve] | inactive
OC1CCC([C@H](O)C[C@H]2c3c(F)cccc3-c3cncn32)CC1 (some centres not stated) | inconclusive: 0.525 µM [cytotoxic, full curve, poor fit] | inconclusive: 20.9 µM [cytotoxic, partial curve, poor fit] | inconclusive: 35.5 µM [cytotoxic, single point]
Nc1cc(COc2c(Cl)cc(C[C@H](N)C(=O)O)cc2Cl)c2oc(-c3ccccc3)nc2c1 | inconclusive: 5.25 µM [cytotoxic, full curve] | inconclusive: 11.8 µM [cytotoxic, partial curve, poor fit] | inconclusive: 31.6 µM [rising, single point]
O=C1Cc2cc(C(=O)NC3C[C@H]4CC[C@@H](C3)N4S(=O)(=O)CC3CCN(CCCC(F)(F)F)CC3)c(Cl)cc2N1 (some centres not stated) | inconclusive: 10.5 µM [cytotoxic, partial curve] | inconclusive: 10.5 µM [cytotoxic, full curve, poor fit] | inactive
C[C@H](Nc1ncnc2nc[nH]c12)c1cc2ccc(F)cc2nc1-c1ccccn1 | inconclusive: 4.17 µM [cytotoxic, partial curve] | inconclusive: 4.17 µM [cytotoxic, partial curve] | inconclusive: 35.5 µM [cytotoxic, single point]
O=C(CCNNC(=O)c1ccncc1)NCc1ccccc1 | inconclusive: 16.8 µM [cytotoxic, partial curve, poor fit] | inconclusive: 0.0038 µM [cytotoxic, single point] | inactive
COc1cc(C)c(Cc2cnc(N)nc2N)cc1OC | inactive | inconclusive: 15 µM [cytotoxic, partial curve, poor fit] | inconclusive: 23.1 µM [cytotoxic, single point]
Fc1ccc(-c2nc(-c3ccccc3F)[nH]c2-c2ccncc2)cc1 | inconclusive: 20.6 µM [cytotoxic, partial curve] | inconclusive: 11.8 µM [cytotoxic, full curve] | inactive
Cc1c(O)cccc1C(=O)N[C@@H](CSc1ccccc1)[C@H](O)CN1C[C@H]2CCCC[C@H]2C[C@H]1C(=O)NC(C)(C)C | active: 23.7 µM | active: 13.3 µM | active: 6.51 µM

Structure (SMILES) | Potency [1] | Potency [2] | Potency [3]
O=[N+]([O-])c1cncn1CCN1CCOCC1 | inactive and inconclusive: 23.5 µM [cytotoxic, partial curve] | inconclusive: 37.2 µM [cytotoxic, single point] | inactive
CCCc1c(OCCCOc2ccc(OCC(=O)O)cc2)ccc(C(C)=O)c1O | inconclusive: 37.2 µM [cytotoxic, partial curve, poor fit] | inconclusive: 20.9 µM [cytotoxic, partial curve] | inconclusive: 35.5 µM [cytotoxic, single point]
CC1(C)CO[C@@H](CC(=O)O)CN1 | inactive | inactive | inactive
C[N+]1(CC2COC(c3ccccc3)(C3CCCCC3)O2)CCCCC1 (configuration not stated) | active: 13.3 µM | active: 11.9 µM | inactive
Cc1cc(/C=c2/sc3nc4ccccc4n3c2=O)c(C)n1-c1ccccc1 | inconclusive: 8.33 µM [cytotoxic, full curve] | active: 10.5 µM | inactive
O=C1OCCN1/N=C/c1ccc([N+](=O)[O-])o1 | inactive | inconclusive: 13.3 µM [cytotoxic, partial curve, poor fit] | inconclusive: 29.1 µM [cytotoxic, single point]
C[N+](C)(C)CCCCCC[N+](C)(C)C | inactive | inactive | inactive
C[C@]12CC[C@H]3[C@@H](CCC4=CC(=O)CC[C@@]43C)[C@@H]1CC[C@@H]2C(=O)CO | inconclusive: 23.7 µM [cytotoxic, single point] | inconclusive: 33.5 µM [cytotoxic, single point] | inconclusive: 29.1 µM [cytotoxic, single point]
O=C1Nc2cc(Cl)ccc2Oc2ccccc21 | inactive | inconclusive: 0.0021 µM [rising, full curve] | inactive
CC(=O)O/N=C1\C(=O)N(Cc2cc(Cl)ccc2Cl)c2ccc(Cl)cc21 | active: 5.9 µM | active: 8.33 µM | active: 0.562 µM
Nc1ccc2cc3ccc(N)cc3nc2c1 | inconclusive: 5.96 µM [cytotoxic, full curve, poor fit] | inconclusive: 7.5 µM [cytotoxic, partial curve, poor fit] | active: 2.59 µM
CCCCCCCCCCCCCCCCCCNC(=O)OC1CCN(C(=O)OC[C@H](COC(=O)N(Cc2cccc[n+]2CC)C(=O)c2ccccc2OC)OC)CC1 | inconclusive: 0.75 µM [cytotoxic, full curve] | inconclusive: 1.06 µM [cytotoxic, full curve] | inconclusive: 23.1 µM [cytotoxic, single point]
COc1cc2c(cc1OC)C(=O)C(CC1CCN(Cc3ccccc3)CC1)C2 (configuration not stated) | inconclusive: 0.944 µM [cytotoxic, partial curve, poor fit] | inconclusive: 3.35 µM [cytotoxic, full curve] | inconclusive: 2.06 µM [cytotoxic, partial curve, poor fit]
CC1Cc2ccccc2N1C(=O)Cc1nc(N2CCOCC2)cc(=O)[nH]1 (configuration not stated) | inconclusive: 4.68 µM [cytotoxic, partial curve] | inconclusive: 16.6 µM [cytotoxic, partial curve] | inconclusive: 17.8 µM [cytotoxic, partial curve, poor fit]
CC(C)NNC(=O)c1ccncc1 | inactive | inactive | inactive
O=C1CC2(CCCC2)CC(=O)N1 | inactive | inconclusive: 0.237 µM [cytotoxic, single point] | inactive
CCC(=O)c1c(O)cc(O)cc1O | inconclusive: 0.0047 µM [rising, full curve, poor fit] | inconclusive: 0.0011 µM | inconclusive: 29.1 µM [cytotoxic, single point]
O=C(O)CNC(=O)c1ncc(-c2cccc(Cl)c2)cc1O | inconclusive: 29.5 µM [cytotoxic, single point] | inconclusive: 18.6 µM [cytotoxic, partial curve] | inconclusive: 15.8 µM [cytotoxic, partial curve, poor fit]
CC(CN1c2ccccc2Sc2ccccc21)N(C)C (configuration not stated) | inactive | inactive | inconclusive: 18.4 µM [cytotoxic, single point]
